Assay results as given in PubChem BioAssay AID493208 (National Center for Advancing Translational Sciences (NCATS), 2011).
In all, about 44,000 compounds went through this assay and about 340 (0.77%) were called active. Another 5% or so got no clear call; they are omitted. Calls follow the shape of the dose curve; as a rule, active = well fitted inhibition curve with a large enough effect; inconclusive = small, poorly fitted or top-dose-only effect; inactive = flat fitted curve, though single readings scatter. The list shows a part of the results.

Assay: Acumen qHTS Assay for Inhibitors of the mTORC1 Signaling Pathway in MEF (Tsc2-/-, p53-/-) Cells: Sytravon;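 also: plate controls were DMSO for no effect and rapamycin for full effect; nearly all actives have a fitted effect of over 50% in size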
Conditions: phospho-rpS6 immunofluorescence/PI, 24 h; series mostly up to 38.3 µM; activity change, negative = inhibition: at the top concentration
In short: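 Compounds act on Tsc2-/-, p53-/- fibroblasts carrying an empty vector for 24 h before fixation and dual staining for phospho-S6 and DNA (propidium iodide). Values are percentages of cells above a rapamycin-defined pS6/PI threshold.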

Activity change, negative = inhibition, inactive:
CC1N=C2c3ccccc3N=C(SCC(=O)NCc3ccc(Cl)cc3)N2C1=O (configuration not stated) 7.39%
COc1cccc(-c2n[nH]c3c2C(c2cccc(O)c2)N(C)C3=O)c1 (configuration not stated) -5.18%
CCS(=O)(=O)N1CC(=O)N(c2cccc(C)c2C)C(C)(C(=O)NC2CCCCCC2)C1 (configuration not stated) 1.35%
COc1ccc(CNC(=O)c2cnn(-c3ccc(OC)cc3)c2C2CCN(C(=O)OC(C)(C)C)CC2)cc1 2.53%
Cc1nc(SCC(=O)Nc2ccccc2Cl)cc(-c2ccccc2)n1 -9.35%
Cc1c2cnn(-c3ccccc3)c(=O)c2c(C)n1CC(=O)N1CCN(c2cccc(Cl)c2)CC1 -1.83%
CCCCOc1ccc(S(=O)(=O)Nc2ccc(-c3ccc(N4CCCCC4)nn3)cc2)cc1 1.89%
Cc1cccc2c1-c1sc(C(=O)Nc3ccccc3C(N)=O)cc1CO2 -1%
Cc1ccccc1OCC(=O)NCC(c1ccc(Cl)cc1)N1CCOCC1 (configuration not stated) -5.73%
Cc1c(C(=O)N(C)c2ccccc2)sc2nc(-c3ccc(F)cc3)cn12 -0.223%
CCc1cc2c(cc3c(=O)n(CC(=O)NC4CCC(C)CC4)nc(CC)n32)s1 (configuration not stated) -2.28%
O=C(Nc1cccc2cccnc12)c1cccc2c(Br)cccc12 6.15%
O=C1c2oc3ccccc3c(=O)c2C(c2ccccc2F)N1Cc1ccc2c(c1)OCO2 (configuration not stated) -6.9%
Cc1ccc2onc(CNC(=O)N(C)Cc3ccccc3)c2c1 -5.44%
CCN(CC)CCNC(=O)c1sc2nc(C)cc(C)c2c1-n1cccc1 0%
COc1ccc(-n2c(Cc3ccccc3)nnc2SCc2nc(-c3ccccc3C)no2)cc1 3.45%
CCc1ccccc1NC(=O)Cn1c(C(=O)OC)cc2oc(C)cc21 -1.88%
CCOC(=O)c1ccc(NC(=O)c2cccc3c(=O)c4c([nH]c23)CCCC4)cc1 0.355%
COc1ccc(NC(=O)Cn2ccn(Cc3ccccc3)c(=O)c2=O)cc1Cl 8.88%
CN(C(=O)CSc1cn(CC(=O)N2CCCC2)c2ccccc12)c1ccccc1 -4.9%
O=C(Nc1ccc(Br)cc1F)c1ccc2nc(CCc3ccccc3)oc2c1 -0.536%
O=C1c2[nH]nc(-c3ccccc3O)c2C(c2cccc(Br)c2)N1Cc1ccncc1 (configuration not stated) -24.6%
CCOC(=O)c1cc(-c2ccccc2)n(-c2cccc(C(=O)NC(C)CC)c2)c1C (configuration not stated) -0.627%
O=C(Cn1ncc2c3ccccc3n(Cc3ccc(F)cc3)c2c1=O)NC1CCCCCC1 0.154%
CCn1c(CN2CCCCC2)nc2cc(NC(=O)COc3cc(C)ccc3C(C)C)ccc21 -1.99%
Cc1ccc(N(C)S(=O)(=O)c2ccc(-c3cnc(C4CC4)o3)cc2)cc1 0.634%
COc1ccc(Nc2nc(-c3ccccc3)c3cc(Br)ccc3n2)cc1 8.23%
